PMC9785492 (Viruses, 2022)

Columns and labels:
influenza A/WSN/33 virus = type: cell-based, Influenza A virus (H1N1)
A/WSN/33 virus [1] = type: cell-based, Influenza A virus (H1N1)
A/WSN/33 virus [2] = type: cell-based, Influenza A virus (H1N1); remark: listed apart in the source
SARS-CoV-2 = type: cell-based; settings: without cytotoxicity, data unpublished
A/WSN/33 virus [3] = test system: A/WSN/33 virus
[4] = test system: human coronavirus OC43 (HCoV-OC43); type: cell-based
A/WSN/33 = type: cell-based

Compound | formation of viral plaques (influenza A/WSN/33 virus) | NP protein level, viral binding (A/WSN/33 virus [1]) | number of clathrin-coated vesicles (A/WSN/33 virus [2]) | SARS-CoV-2 infection in vitro (SARS-CoV-2) | intracellular level of vRNA, pre-fusion stage (A/WSN/33 virus [3]) | HCoV-OC43 infection in vitro [4] | IAV replication (intracellular IAV RNA) (A/WSN/33)
COC(=O)C1=C(C)NC(C)=C(C(=O)OCC(C)C)C1c1ccccc1[N+](=O)[O-] (stereo not shown) [Nisoldipine] | dose-dependently reduce | no significant difference | less than that in the control cells | capable of inhibiting | remarkably reduced | capable of inhibiting | 
O=C(O)CN(CCOCCOCCN(CC(=O)O)CC(=O)O)CC(=O)O [EGTA] |  |  |  |  |  |  | dramatically impaired
